Laboratory results taken from PubChem BioAssay AID463173 (ICCB-Longwood Screening Facility, Harvard Medical School, 2010).
The campaign covered roughly 52,000 compounds. About 1,700 (3.3%) were called active. No stated cut-off is given here; in the data, active means survival mostly below about 52% (no sharp cut-off); inactive means mostly above about 56%. This is one part of the list.

System: Wild type
Test: S. aureus survival, RN4220 and DeltatarO strains – OD600, teichoic acid synthesis inhibitors, primary screen (AID 463173)
Conditions: S. aureus RN4220 wild type/DeltatarO growth, OD600, 18 h, stronger effect = lower value, screened at 18.75 µg/mL (by protocol)

Structure (SMILES)	survival
CCCc1ccc(OC(C)C(=O)Nc2sc3c(c2C(=O)OC)CCCCC3)cc1 (centres undefined)	active: -2%
Cc1ccc(-c2nc(CS(=O)(=O)CC(=O)N3CCN(c4cccc(C)c4C)CC3)c(C)o2)cc1	inactive: 129%
CCOC(=O)c1cnc2ccc(OC)cc2c1NCCc1ccc(OC)c(OC)c1	inactive: 78%
Cn1c(SCC(=O)N2CCCc3ccccc32)ncc(C(=O)Nc2ccc(F)cc2)c1=O	inactive: 70%
CSc1nc(Nc2cccc(C)c2)c(C#N)c(-c2ccccc2)n1	inactive: 104%
CNc1c(NC(=O)c2cc(OC)cc(OC)c2)c(=O)oc2ccccc12	inactive: 87%
Cc1ccc(C(=O)CCNc2ccc(F)c(Cl)c2)o1	inactive: 100%
Cc1cccc(CNC(=O)c2cccc(NC(=O)N3CCSc4ncccc43)c2)c1	inactive: 51%
CCCCNC(=O)c1nn(-c2ccc(C)cc2)c(=O)c2c1c1ccccc1n2C	inactive: 79%
CCC12CN3CC(C)(CN(C1)C3c1ccccc1C)C2=O (centres undefined)	inactive: 82%
Cc1ccccc1-c1nc2cc(NC(=O)c3cccc(OCCC(C)C)c3)ccc2o1	inactive: 61%
CCOc1ccc(-n2ccn3c(CC(C)CC(=O)O)nnc3c2=O)cc1 (centres undefined)	inactive: 139%
CC(=O)OC(C(=O)NCc1ccc2c(c1)OCO2)c1ccccc1Cl (centres undefined)	inactive: 101%
COc1ccc2c(c1)c1c(c(=O)n(-c3ccc(C)cc3)c(=O)n1CC(=O)N1CCCC1)n2C	inactive: 69%
COc1cc(NC(=O)c2ccc(-c3nc(COc4ccccc4)c(C)o3)cc2)cc(OC)c1	inactive: 77%
O=C(c1ccco1)c1cn(CC(=O)N2CCc3ccccc32)c2ccccc12	inactive: 85%
CCOC(=O)N1CCC(NC(=O)c2ccc3c(c2)N(Cc2ccccc2)C(=O)c2ccccc2S3=O)CC1 (centres undefined)	inactive: 90%
CCCCN(Cc1ccccc1)S(=O)(=O)c1cc(Br)cc2c1N(C(=O)C1CC1)CC2	inactive: 63%
CCCNC(=O)CCn1nc(-c2ccccc2)c2ccccc2c1=O	inactive: 74%
O=C(CSc1nnc(CNC(=O)c2ccccc2F)n1-c1ccccc1)Nc1ccccc1F	inactive: 66%
CC(=O)C1=C(c2ccc(Cl)c(Cl)c2)N(C(C)=O)n2c(nnc2C2CCCCC2)S1	inactive: 73%
O=C(CCc1nnc2n(Cc3ccccc3Cl)c(=O)c3ccccc3n12)Nc1ccc(F)cc1	inactive: 82%

Structure (SMILES)	survival
CCOc1ccc(OCC)c(NC(=O)c2cc(CN3CCOCC3)on2)c1	inactive: 72%
Cc1ccc(S(=O)(=O)c2cnc(SC(C)C(=O)Nc3ccccc3)[nH]c2=O)cc1 (centres undefined)	inactive: 82%
CCC(Cn1nnc2ccccc2c1=O)NC(=O)Nc1ccc(C)cc1 (centres undefined)	inactive: 92%
Cc1ccc(NC(=O)CCNS(=O)(=O)c2ccc(Br)s2)cc1	inactive: 83%
CCOC(=O)C1CCCN(C(=O)c2cccc(NC(=O)c3nsc4ccccc34)c2)C1 (centres undefined)	inactive: 99%
O=C(Nc1ccccc1Cl)c1cc(S(=O)(=O)N2CCC3(CC2)OCCO3)ccc1F	inactive: 73%
O=C(NCCS(=O)(=O)N1CCN(c2ccccc2F)CC1)C(c1ccccc1)c1ccccc1	inactive: 74%
COc1cc(C2C(=O)N(C3CCCCCC3)CC(=O)N2CCC2=CCCCC2)ccc1OC(C)C (centres undefined)	inactive: 100%
CCOc1ccc(N(CC)S(=O)(=O)N2CCCC(C(=O)Nc3ccc(OC)c(OC)c3)C2)cc1 (centres undefined)	inactive: 110%
CCn1cc2nc(SCc3ccccc3Cl)n(CCc3ccccc3)c(=O)c2n1	inactive: 91%
CC(C)COC(=O)CNc1n[nH]c(=S)[nH]c1=O	inactive: 119%
Cc1ccc(-c2nc(NC(=O)CSc3ncnc4sc5c(c34)CCC(C)C5)ns2)cc1 (centres undefined)	inactive: 75%
CCCN1C2CCCC1CC(NC(=O)c1cc(OC)c(OC)c(OC)c1)C2 (centres undefined)	inactive: 104%
CCc1ccc(NS(=O)(=O)c2ccc3[nH]cc(C(=O)NCCc4cccc(C)c4)c(=O)c3c2)cc1	inactive: 76%
COc1ccc(-n2cc(C(=O)OCc3ccc(F)c(F)c3)c3ccccc3c2=O)cc1	inactive: 120%
CCOC(=O)Cc1nnc2c(Nc3cc(C)ccc3C)nc3nonc3n12	inactive: 106%
O=C(NC1(C(F)(F)F)C(=O)Nc2c1c(=O)[nH]c(=O)n2-c1ccc(F)cc1)c1ccccc1 (centres undefined)	inactive: 59%
COc1ccc(C2C(=O)N(C3CCCCC3)CC(=O)N2CCC2=CCCCC2)cc1 (centres undefined)	inactive: 72%
CCOc1ccc(-n2c(=O)c3sc4ccccc4c3n(Cc3cccc(C)c3)c2=O)cc1	inactive: 130%
Cc1ccc(OC(=O)c2cc(-c3ccc(Cl)cc3)on2)c(C)c1	inactive: 93%
Cc1cccc(N2CCN(C(=O)CCc3c(C)nc4c(c3C)c(=O)n(C)c(=O)n4C)CC2)c1C	inactive: 83%
COC(=O)CN1C(=O)c2ccccc2NC1c1ccc(OC)cc1 (centres undefined)	inactive: 102%
